Source: the supplement of paper PMC4967469

Columns and labels:
Test in all cases: Viability of human cancer cell lines after 72 h of drug (GDSC screen)
QL-XI-92 = compound: C=CC(=O)Nc1cc(NC(=O)c2ccc(C)c(NC(=O)c3ccno3)c2)cc(C(F)(F)F)c1 [QL-XI-92]; details: top dose 10.24 µM; top dose inferred
Experimental: (§1)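 Human cancer cell lines in 384-well plates, medium with 10% serum, drug for 72 h over a 256-fold dose range (nine 2-fold or five 4-fold steps up to the top dose). Adherent lines were fixed and stained with the nucleic acid dye Syto60, suspension lines read with resazurin; signal relative to control wells, capped at 0 and 100%. One two-parameter sigmoid per drug and line, fitted in a mixed model over all curves with the slope shared within a line.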

Vinorelbine = compound: CCC1=C[C@@H]2CN(C1)Cc1c([nH]c3ccccc13)[C@@](C(=O)OC)(c1cc3c(cc1OC)N(C)[C@H]1[C@@](O)(C(=O)OC)[C@H](OC(C)=O)[C@]4(CC)C=CCN5CC[C@]31[C@@H]54)C2 [Vinorelbine]; details: top dose 0.064 µM; top dose inferred
Experimental: as §1

AG-014699 = compound: CNCc1ccc(-c2[nH]c3cc(F)cc4c3c2CCNC4=O)cc1 [AG-014699]; details: top dose 5 µM; top dose inferred
Experimental: as §1

XL-184 = compound: COc1cc2nccc(Oc3ccc(NC(=O)C4(C(=O)Nc5ccc(F)cc5)CC4)cc3)c2cc1OC [XL-184]; details: top dose 5.12 µM; top dose inferred
Experimental: as §1

WHI-P97 = compound: COc1cc2ncnc(Nc3cc(Br)c(O)c(Br)c3)c2cc1OC [WHI-P97]; details: top dose 10.24 µM; top dose inferred
Experimental: as §1

Gefitinib = compound: COc1cc2ncnc(Nc3ccc(F)c(Cl)c3)c2cc1OCCCN1CCOCC1 [Gefitinib]; details: top dose 0.5 µM
Experimental: as §1

Phenformin = compound: N=C(N)NC(=N)NCCc1ccccc1 [Phenformin]; details: top dose 4000 µM; top dose inferred
Experimental: as §1

S-Trityl-L-cysteine = compound: N[C@@H](CSC(c1ccccc1)(c1ccccc1)c1ccccc1)C(=O)O [S-Trityl-L-cysteine]; details: top dose 5.12 µM; top dose inferred
Experimental: as §1

EHT 1864 = compound: O=c1cc(CN2CCOCC2)occ1OCCCCCSc1ccnc2cc(C(F)(F)F)ccc12 [EHT 1864]; details: top dose 10 µM; top dose inferred
Experimental: as §1

NU-7441 = compound: O=c1cc(N2CCOCC2)oc2c(-c3cccc4c3sc3ccccc34)cccc12 [NU-7441]; details: top dose 2 µM; top dose inferred
Experimental: as §1

| Cell Line | AUC (QL-XI-92) | IC50 (QL-XI-92) [µM] | AUC (Vinorelbine) | IC50 (Vinorelbine) [µM] | AUC (AG-014699) | IC50 (AG-014699) [µM] | AUC (XL-184) | IC50 (XL-184) [µM] | AUC (WHI-P97) | IC50 (WHI-P97) [µM] | AUC (Gefitinib) | IC50 (Gefitinib) [µM] | AUC (Phenformin) | IC50 (Phenformin) [µM] | AUC (S-Trityl-L-cysteine) | IC50 (S-Trityl-L-cysteine) [µM] | AUC (EHT 1864) | IC50 (EHT 1864) [µM] | AUC (NU-7441) | IC50 (NU-7441) [µM] |
| --- | --- | --- | --- | --- | --- | --- | --- | --- | --- | --- | --- | --- | --- | --- | --- | --- | --- | --- | --- | --- |
| KLE (endometrium, adherent) | 0.947 | > 10.2 | 0.848 | > 0.064 | 0.969 | > 5 | 0.932 | > 5.12 | 0.949 | > 10.2 | 0.948 | > 0.5 | 0.703 | 1300 | 0.824 | > 5.12 | 0.905 | > 10 | 0.958 | > 2 |
| KM-H2 (Hodgkin lymphoma, suspension) | 0.957 | > 10.2 | 0.639 |  | 0.983 | > 5 | 0.972 | > 5.12 | 0.991 | > 10.2 | 0.98 | > 0.5 | 0.993 | > 4000 | 0.763 | 1.58 | 0.873 | 7.15 | 0.986 | > 2 |
| KNS-42 (glioma, adherent) | 0.971 | > 10.2 | 0.588 | 0.00733 | 0.979 | > 5 | 0.934 | > 5.12 | 0.966 | > 10.2 | 0.975 | > 0.5 | 0.761 | 1680 | 0.82 | 3.69 | 0.968 | > 10 | 0.984 | > 2 |
| KS-1 (glioma, adherent) | 0.868 | > 10.2 | 0.375 | 0.00166 | 0.921 | > 5 | 0.761 | 2.26 | 0.968 | > 10.2 | 0.952 | > 0.5 | 0.81 | 2780 | 0.636 |  | 0.848 | > 10 | 0.96 | > 2 |
| KU812 (chronic myeloid leukaemia, suspension) | 0.821 | 5.28 | 0.638 |  | 0.988 | > 5 | 0.95 | > 5.12 | 0.988 | > 10.2 | 0.963 | > 0.5 | 0.309 | 77.1 | 0.671 | 0.913 | 0.867 | 7.72 | 0.975 | > 2 |
| KY821 (leukaemia, suspension) | 0.971 | > 10.2 | 0.967 | > 0.064 | 0.988 | > 5 | 0.969 | > 5.12 | 0.991 | > 10.2 | 0.991 | > 0.5 | 0.818 | 1890 | 0.76 | 1.6 | 0.961 | > 10 | 0.91 | > 2 |
| L-540 (Hodgkin lymphoma, suspension) | 0.932 | > 10.2 | 0.807 | 0.0286 | 0.99 | > 5 | 0.972 | > 5.12 | 0.94 | > 10.2 | 0.99 | > 0.5 | 0.988 | > 4000 | 0.933 | > 5.12 | 0.981 | > 10 | 0.985 | > 2 |
| LAN-6 (neuroblastoma, adherent) | 0.96 | > 10.2 | 0.966 | > 0.064 | 0.951 | > 5 | 0.968 | > 5.12 | 0.982 | > 10.2 | 0.963 | > 0.5 | 0.875 | > 4000 | 0.86 | > 5.12 | 0.959 | > 10 | 0.951 | > 2 |
| LB373-MEL-D (melanoma, adherent) | 0.99 | > 10.2 | 0.824 | 0.037 | 0.99 | > 5 | 0.968 | > 5.12 | 0.963 | > 10.2 | 0.99 | > 0.5 | 0.864 | 3370 | 0.804 | 2.5 | 0.99 | > 10 | 0.99 | > 2 |
| LB2518-MEL (melanoma, adherent) | 0.987 | > 10.2 | 0.847 | 0.051 | 0.987 | > 5 | 0.975 | > 5.12 | 0.981 | > 10.2 | 0.981 | > 0.5 | 0.414 | 143 | 0.809 | 2.85 | 0.987 | > 10 | 0.97 | > 2 |
| LC4-1 (lymphoblastic leukaemia, suspension) | 0.81 | 6.12 | 0.611 | 0.00836 | 0.985 | > 5 | 0.896 | > 5.12 | 0.962 | > 10.2 | 0.983 | > 0.5 | 0.417 | 144 | 0.781 | 2.37 | 0.962 | > 10 | 0.985 | > 2 |
| LOUCY (T-cell lymphoblastic leukaemia, suspension) | 0.876 | 7.05 | 0.622 | 0.00811 | 0.971 | > 5 | 0.878 | 3.58 | 0.973 | > 10.2 | 0.989 | > 0.5 | 0.574 | 382 | 0.592 | 0.545 | 0.959 | > 10 | 0.991 | > 2 |
| LS-1034 (large intestine, adherent) | 0.982 | > 10.2 | 0.909 | > 0.064 | 0.972 | > 5 | 0.921 | > 5.12 | 0.986 | > 10.2 | 0.94 | > 0.5 | 0.81 | 2390 | 0.826 | 3.55 | 0.984 | > 10 | 0.983 | > 2 |
| LU-165 (small cell lung carcinoma, suspension) | 0.965 | > 10.2 | 0.894 | > 0.064 | 0.988 | > 5 | 0.969 | > 5.12 | 0.982 | > 10.2 | 0.979 | > 0.5 | 0.903 | > 4000 | 0.949 | > 5.12 | 0.922 | > 10 | 0.988 | > 2 |
| LXF-289 (lung adenocarcinoma, adherent) | 0.966 | > 10.2 | 0.568 | 0.00613 | 0.951 | > 5 | 0.949 | > 5.12 | 0.98 | > 10.2 | 0.984 | > 0.5 | 0.825 | 2350 | 0.663 | 0.901 | 0.969 | > 10 | 0.926 | > 2 |
| MC116 (B-cell lymphoma, suspension) | 0.999 | > 10.2 | 0.61 | 0.00735 | 0.999 | > 5 | 0.984 | > 5.12 | 0.999 | > 10.2 | 0.999 | > 0.5 | 0.395 | 139 | 0.644 |  | 0.998 | > 10 | 0.999 | > 2 |
| MC-CAR (haematopoietic neoplasm, suspension) | 0.789 | 4.01 | 0.661 | 0.0106 | 0.954 | > 5 | 0.895 | 5.09 | 0.942 | > 10.2 | 0.989 | > 0.5 | 0.856 | 2690 | 0.734 | 1.36 | 0.977 | > 10 | 0.923 | > 2 |
| MDST8 (large intestine, adherent) | 0.983 | > 10.2 | 0.817 | 0.0353 | 0.969 | > 5 | 0.956 | > 5.12 | 0.985 | > 10.2 | 0.976 | > 0.5 | 0.927 | > 4000 | 0.869 | 4.64 | 0.833 | 6.35 | 0.956 | > 2 |
| ME-1 (acute myeloid leukaemia, suspension) | 0.959 | > 10.2 | 0.962 | > 0.064 | 0.989 | > 5 | 0.989 | > 5.12 | 0.978 | > 10.2 | 0.969 | > 0.5 | 0.871 | > 4000 | 0.946 | > 5.12 | 0.958 | > 10 | 0.972 | > 2 |
| MFH-ino (soft tissue, adherent) | 0.982 | > 10.2 | 0.563 | 0.00614 | 0.963 | > 5 | 0.975 | > 5.12 | 0.978 | > 10.2 | 0.981 | > 0.5 | 0.949 | > 4000 | 0.557 |  | 0.965 | > 10 | 0.927 | > 2 |
| MFM-223 (breast, adherent) | 0.971 | > 10.2 | 0.984 | > 0.064 | 0.986 | > 5 | 0.818 | 2.84 | 0.981 | > 10.2 | 0.989 | > 0.5 | 0.849 | 2960 | 0.989 | > 5.12 | 0.943 | > 10 | 0.989 | > 2 |
| MHH-PREB-1 (B-cell leukaemia, suspension) | 0.93 | > 10.2 | 0.505 | 0.00413 | 0.985 | > 5 | 0.882 | 4.45 | 0.887 | 9.38 | 0.986 | > 0.5 | 0.242 | 49.8 | 0.743 | 1.45 | 0.915 | > 10 | 0.942 | > 2 |
| ML-2 (acute myeloid leukaemia, suspension) | 0.941 | > 10.2 | 0.489 | 0.00375 | 0.99 | > 5 | 0.932 | > 5.12 | 0.977 | > 10.2 | 0.986 | > 0.5 | 0.348 | 100 | 0.641 | 0.749 | 0.971 | > 10 | 0.987 | > 2 |

A lower IC50 marks a more sensitive line; fits outside the tested doses are given as limits. AUC, from the same fit, is the share of area under the viability curve across the 256-fold dose range; values near 1 show little effect. For some assays here: Where the top dose is marked as inferred, it was derived from the fitted curves, not read from the paper.
